Measured values: PubChem BioAssay AID485294 (National Center for Advancing Translational Sciences (NCATS), 2010)
The campaign covered roughly 370,000 compounds. About 150 (0.041%) were called active. The shares of active, inactive and inconclusive entries below differ from those in the screen. The call rests on the fitted dose curve; in most records, active means well fitted inhibition curve with a large enough effect; inconclusive means small, poorly fitted or top-dose-only effect; inactive means flat fitted curve, though single readings scatter. Potencies of inconclusive entries are left out as doubtful fits.

The compounds below were run against Beta-lactamase (Escherichia coli (strain K12)) (UniProt P00811) (assay: qHTS Inhibitors of AmpC Beta-Lactamase (assay with detergent)). Conditions: AmpC hydrolysis of nitrocefin, absorbance 480 nm, 0.01% Triton; activity change, negative = inhibition: at 114 µM (top of the series).
How it was run: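 20 mM phosphate pH 7.0 + 0.01% (detergent screen) or 0.0001% Triton X-100; 5.3 nM AmpC reagent; cpd preinc 15 min RT; nitrocefin (800 uM stock) to start; A480 q20 s × 4 min; Activity was normalised to no-enzyme and no-compound control wells.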
Further: nearly all actives have a fitted effect of over 25% in size.
Potency means the concentration at half of the fitted maximal effect; tags describe the fitted curve by direction and shape.
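Wherever activity change, negative = inhibition is given: 0% = no-compound wells and -100% = no-enzyme wells.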

UniProt P00811, sequence (P00811 whole entry, looked up): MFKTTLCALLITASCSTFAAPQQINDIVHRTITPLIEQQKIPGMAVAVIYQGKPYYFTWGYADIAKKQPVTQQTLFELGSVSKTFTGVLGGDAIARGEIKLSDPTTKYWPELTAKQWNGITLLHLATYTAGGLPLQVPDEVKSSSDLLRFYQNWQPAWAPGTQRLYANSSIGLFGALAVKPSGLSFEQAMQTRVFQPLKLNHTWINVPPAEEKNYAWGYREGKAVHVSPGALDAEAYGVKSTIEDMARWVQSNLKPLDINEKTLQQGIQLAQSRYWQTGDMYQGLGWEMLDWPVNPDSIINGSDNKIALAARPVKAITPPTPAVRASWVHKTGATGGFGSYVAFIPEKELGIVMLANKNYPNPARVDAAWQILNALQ

Row | Compound | activity change, negative = inhibition | Potency
1 | Cc1ccc(CNC(=O)c2c(Nc3c(C)cccc3C)sc(C(=O)c3ccccc3)c2N)cc1 | inactive: 7.05% | –
2 | CCOC(=O)c1ccc(NC(=O)CSc2nnc(COc3ccccc3OC)n2CC)cc1 | – | inconclusive [inhibitor, partial curve, poor fit]
3 | CC(C)(C)C1CCC(=NNC(=O)C2COc3ccccc3O2)CC1 (stereo not drawn) | – | inconclusive [inhibitor, partial curve, poor fit]
4 | Cn1c(=O)c2nnn(/N=C(\c3ccccc3)C3CC3)c2n(C)c1=O | – | inconclusive [inhibitor, full curve]
5 | O=C(Nc1ccc(Cl)cc1F)C1CCN(S(=O)(=O)c2cccc3nonc23)CC1 | – | inconclusive [inhibitor, full curve, poor fit]
6 | O=C(Cn1cnc2c(nnn2Cc2ccccc2)c1=O)N1CCN(c2ccccc2)CC1 | – | inconclusive [inhibitor, full curve, poor fit]
7 | CC(C)c1cc(-c2nc(-c3ccc(Cl)cc3)no2)n[nH]1 | inactive: 3.33% | –
8 | O=C(CCn1c(=O)c2ccccc2n(CC(=O)Nc2ccc(F)cc2)c1=O)NCCc1ccccc1 | inactive: 12.7% | –
9 | COc1ccc(C(C)(C)C)cc1NC(=O)C1CCCO1 (stereo not drawn) | – | inconclusive [inhibitor, full curve, poor fit]
10 | CCOc1ccccc1NC(=O)C1=C(C)Nc2ncnn2C1c1ccco1 (stereo not drawn) | inactive: 22.2% | –
11 | Cc1c(N=Nc2c(O)[nH]c(=O)[nH]c2=O)c(=O)n(-c2ccccc2)n1C | inactive: -4.63% | –
12 | Cc1ccc(OCCCC(=O)Nc2nc3ccccc3[nH]2)cc1 | – | inconclusive [inhibitor, full curve, poor fit]
13 | O=C(CSc1nnc(-c2ccccc2)n1-c1ccc(Cl)cc1)NC1CCS(=O)(=O)C1 (stereo not drawn) | – | inconclusive [inhibitor, single point]
14 | Cc1cccc(-n2c(SCC(=O)Nc3ccc(C)c(C)c3)nc3n[nH]c(C)c3c2=N)c1 | inactive: -5.11% | –
15 | CN(CCC#N)C(=O)c1cc2c(s1)-c1ccccc1SC2 | – | inconclusive [inhibitor, single point]
16 | O=C(NCCc1ccccc1)C(=O)NC1CCCCC1 | – | inconclusive [inhibitor, full curve]
17 | Cn1c(=O)c2c(ncn2CC(=O)N(Cc2ccccc2)c2ccccn2)n(C)c1=O | – | inconclusive [inhibitor, full curve, poor fit]
18 | O=c1cc(/C=C/c2cccs2)[nH]c2ccccc12 | inactive: 0.618% | –
19 | CCC(C)OC(=O)C1=C(C)O[C@]23OC(N)=C(C#N)[C@]12C(=O)c1ccccc13 (stereo partly drawn) | – | inconclusive [inhibitor, full curve, poor fit]
20 | O=C(OCCc1ccccc1)c1cc(O)c(O)c(O)c1 | inactive: -8.16% | –
21 | S=C1NC2(CCCCC2)NN1c1ccccc1 | – | inconclusive [inhibitor, partial curve]
22 | COc1ccc(OC)c(Nc2ncnc3sccc23)c1 | – | inconclusive [inhibitor, full curve, poor fit]

Row | Compound | activity change, negative = inhibition | Potency
23 | CCc1ccc(CCC(=O)Nc2ccc(C)c(C)c2)o1 | – | inconclusive [inhibitor, single point]
24 | COc1ccccc1C(=O)NCCC(=O)N(C)CC(=O)Nc1c(Cl)cccc1Cl | – | inconclusive [inhibitor, full curve]
25 | COc1ccc(OC)c(NC(=O)CCN2CCN(C/C=C/c3ccccc3)CC2)c1 | – | inconclusive [inhibitor, full curve, poor fit]
26 | COc1cccc(-n2c(=O)c3c(C)c(C)sc3n(Cc3ccccc3C#N)c2=O)c1 | – | inconclusive [inhibitor, single point]
27 | O=[N+]([O-])c1nn(-c2ccccc2)n(O)c1=NCCc1ccccc1 | inactive: -5.01% | –
28 | COc1ccc(C(C)NC(=O)Nc2ccc(C(C)=O)cc2)cc1OC (stereo not drawn) | inactive: 3.03% | –
29 | O=C(NCCN1CCOCC1)c1csc2c1CCCCC2 | – | inconclusive [inhibitor, full curve, poor fit]
30 | OC(CNCc1ccccc1)COc1ccccc1 (stereo not drawn) | – | inconclusive [inhibitor, single point]
31 | C[N+]1(C)[C@@H]2CC[C@H]1CC(OC(=O)C(CO)c1ccccc1)C2 (stereo partly drawn) | – | inconclusive [inhibitor, partial curve]
32 | N#CC1=C(SCC(=O)c2ccc(Br)cc2)NC2=C(C(=O)CCC2)C1c1ccco1 (stereo not drawn) | – | inconclusive [inhibitor, full curve, poor fit]
33 | NS(=O)(=O)c1ccc(CNC(=O)CNC(=O)c2ccc(F)cc2)cc1 | inactive: 0.377% | –
34 | COc1cc2cc(CN(Cc3cccs3)C(=S)Nc3ccccc3)c(=O)[nH]c2cc1OC | – | inconclusive [inhibitor, full curve, poor fit]
35 | O=C1C[C@@H](c2ccc(O[C@@H]3O[C@H](CO)[C@@H](O)[C@H](O)[C@H]3O)cc2)Oc2cc(O)ccc21 | – | inconclusive [inhibitor, partial curve, poor fit]
36 | Cc1cccnc1NC(=O)CNC(=O)c1ccccc1 | – | inconclusive [inhibitor, full curve, poor fit]
37 | COc1ccc(Br)cc1CNC(=O)C1CCN(S(=O)(=O)N2CCCCC2)CC1 | – | inconclusive [inhibitor, full curve, poor fit]
38 | CCN(CC)C(=O)C1CCN(Cc2ccc(OCc3ccccc3)cc2)CC1 | inactive: -16.7% | –
39 | COC(=O)c1ccccc1NC(=O)CN1CCC(NC(=O)c2ccc(C)cc2)CC1 | – | inconclusive [inhibitor, full curve, poor fit]
40 | COc1ccccc1-c1c(C)nn2c(N3CCN(c4ccc(F)cc4)CC3)cc(C)nc12 | inactive: 5.39% | –
41 | CCCCN(C)C(=O)C1CCC(=O)N(c2cc(OC)c(OC)c(OC)c2)C1c1ccc(OC)cc1 (stereo not drawn) | – | inconclusive [inhibitor, single point]
42 | O=C(Nc1ccc2ncccc2c1)c1cccc(Br)c1 | inactive: 0.284% | –
43 | CNC(=S)N(Cc1ccc2c(c1)OCO2)C1CC(=O)N(c2ccccc2)C1=O (stereo not drawn) | – | inconclusive [inhibitor, single point]
